Data: PubChem BioAssay AID1963576 (National Center for Advancing Translational Sciences (NCATS), 2024)
Hit rate of the full screen: of about 46,000 compounds, about 60 (0.1%) were called active. Inconclusive results (about 3%) are left out. Calls follow the shape of the dose curve; as a rule, active = well fitted inhibition curve with a large enough effect; inconclusive = small, poorly fitted or top-dose-only effect; inactive = no such curve, though single readings can be large or run the other way. Some of the results follow.

Assay: Primary qHTS assay for Inhibitors of ovarian cancer metastasis using an organotypic tumor microenvironment (TME) model. Also: nearly all actives have a fitted effect of over 65% in size.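 As to activity change, negative = inhibition: plate controls were DMSO wells for no effect and tomatine positive control wells for full effect.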
Settings: SKOV3ip1-GFP adhesion/invasion on 3D omental model, fluorescence; series mostly up to 45.8 µM; activity change, negative = inhibition: at the top concentration
Procedure, shortened: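 qHTS, 4-pt dose (0.36-46 umol/L); SKOV3ip1-GFP, 1,200 cells/well, no FBS; primary omental fibroblast/mesothelial co-culture 48 h pre-grown; 2 h RT + 16 h 37 C; PBS wash, 4% PFA; GFP count 488/509 nm.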

Question: Which “activity change, negative = inhibition” value does the source give for `Cc1c(NC(=O)Nc2ccc(Cl)c(Cl)c2)sc2nc3n(c(=O)c12)CCC(C)CC3` (stereo unspecified) here?
Answer: Its value is inactive: 8.39%.

Question: With `COC(=O)c1ccc(CSc2c(C(C)C)cnc3c2c(=O)n(C)c(=O)n3C)cc1` as the molecule, how does the “activity change, negative = inhibition” value read?
Answer: The value was inactive: -6.86%.

Question: With `CCOc1ccc(NC(=O)CCc2c(C)nc3cc(-c4ccccc4OC)nn3c2C)cc1` as the molecule, how does the “outcome” value read?
Answer: The value was “inactive”.

Question: Which “activity change, negative = inhibition” value does the source give for `Cc1oc2c(cc(NS(=O)(=O)c3ccc(C(C)C)cc3)c3ccccc32)c1C(=O)OCc1ccccc1` here?
Answer: The value was inactive: -9.44%.

Question: For `Cc1cccc(C2=Nc3ccccc3N=C(c3cc(Cl)ccc3O)C2)c1`, which “activity change, negative = inhibition” value is on record?
Answer: The value was inactive: 2.44%.

Question: For `O=C(Nc1nc2n(n1)C(c1ccc(F)cc1)C=C(c1ccc(Cl)cc1)N2)c1ccc([N+](=O)[O-])cc1` (stereo unspecified), which “activity change, negative = inhibition” value is on record?
Answer: Its value is inactive: 0.369%.

Question: Which “activity change, negative = inhibition” value does the source give for `COc1ccc(NC(=O)c2cnn(-c3ccc(C)c(C)c3)c2C2CCNCC2)cc1OC` here?
Answer: Its value is inactive: 6.89%.

Question: With `N#C/C(=C\c1ccc(OCc2ccc(Cl)cc2Cl)cc1)c1nc2ccccc2[nH]1` as the molecule, how does the “outcome” value read?
Answer: Its value is “inactive”.

Question: With `COc1ccccc1CC(=O)Nc1ccc2nc(Nc3cccc(C(F)(F)F)c3)cc(C)c2c1` as the molecule, how does the “activity change, negative = inhibition” value read?
Answer: Its value is inactive: 1.41%.

Question: Which “activity change, negative = inhibition” value does the source give for `CCOc1ccc(-n2c(C)nc3cc(C(=O)NC4CCCC4)ccc32)cc1` here?
Answer: Its value is inactive: 7.98%.

Question: Which “activity change, negative = inhibition” value does the source give for `Cc1cccc(NC(=O)/C(C#N)=C/c2ccco2)c1` here?
Answer: Its value is inactive: -1.49%.

Question: For `COc1ccc(OC)c(CNC(=O)c2cc3c(Cl)nc4ccccc4c3s2)c1`, which “activity change, negative = inhibition” value is on record?
Answer: The value was inactive: -3.82%.

Question: For `CCCNC(=O)Cn1nc(-c2ccc(OC)cc2)c2cnc3ccc(F)cc3c21`, which “activity change, negative = inhibition” value is on record?
Answer: The value was inactive: -4.34%.

Question: With `O=C(Nc1cccc(Br)c1)N1CCN2CCCCC2C1` (stereo unspecified) as the molecule, how does the “activity change, negative = inhibition” value read?
Answer: The value was inactive: 21.3%.

Question: With `CC(=O)c1cccc(NS(=O)(=O)c2ccc3[nH]c4c(c3c2)CCCCC4)c1` as the molecule, how does the “activity change, negative = inhibition” value read?
Answer: The value was inactive: -10.6%.

Question: Which “activity change, negative = inhibition” value does the source give for `CCN1CCN(c2ccc(Nc3cc(N(C)C(=O)Nc4c(Cl)c(OC)cc(OC)c4Cl)ncn3)cc2)CC1` here?
Answer: Its value is inactive: 1.91%.

Question: For `COc1ccc(CNC(=O)Cn2c(=O)n3nc(-c4ccc(OC)cc4)nc3c3ccccc32)cc1`, which “outcome” value is on record?
Answer: Its value is “inactive”.

Question: Which “activity change, negative = inhibition” value does the source give for `COc1ccc(-c2c(C)nn3c(C(F)(F)F)cc(-c4ccc(C)cc4)nc23)cc1` here?
Answer: Its value is inactive: -3%.

Question: With `COc1ccc(C(CC(=O)Nc2cc(Cl)c(OC)cc2OC)N2Cc3ccccc3C2=O)cc1` (stereo unspecified) as the molecule, how does the “activity change, negative = inhibition” value read?
Answer: The value was inactive: 0.621%.

Question: Which “outcome” value does the source give for `CCOc1ccc(C(=O)Nc2ccc3nc(Nc4cccc(C(F)(F)F)c4)cc(C)c3c2)cc1OCC` here?
Answer: The value was “inactive”.

Question: With `COc1ccc(NC(=O)C(c2ccccc2)N(C)C(=O)/C=C\c2ccc3c(c2)OCO3)cc1` (stereo unspecified) as the molecule, how does the “activity change, negative = inhibition” value read?
Answer: The value was inactive: 1.27%.

Question: For `Cc1cn2c(=O)c(S(=O)(=O)Nc3ccc(OC(F)(F)F)cc3)c(C)nc2s1`, which “activity change, negative = inhibition” value is on record?
Answer: The value was inactive: 4.67%.

Question: Which “outcome” value does the source give for `COc1ccc(-c2noc(CSc3nnc(C)n3-c3ccc(F)cc3)n2)cc1` here?
Answer: Its value is “inactive”.

Question: With `CC(=O)NNc1ncnc2c1cnn2-c1ccccc1` as the molecule, how does the “activity change, negative = inhibition” value read?
Answer: The value was inactive: 2.96%.

Question: Which “outcome” value does the source give for `Cc1ccccc1OCC(=O)Nc1c(C(=O)Nc2ccccc2F)oc2ccccc12` here?
Answer: Its value is “inactive”.

Question: For `COC(=O)c1cnc(N2CCN(c3ccc(OC)cc3)CC2)c2ccccc12`, which “activity change, negative = inhibition” value is on record?
Answer: Its value is inactive: -2.28%.
